Assay results from PubChem BioAssay (NCATS).
The shares of active, inactive and inconclusive entries below differ from those in the screen. For part of these data: A potency beside an inconclusive call is a rough fit, not a confirmed value. Activity calls are given as the source filed them. Unless noted, calls follow the shape of the dose curve; as a rule, active = well fitted curve in the direction sought with a large enough effect; inconclusive = small, poorly fitted or top-dose-only effect, or another doubt; inactive = no such curve, though single readings can be large; an effect the other way counts as inactive or inconclusive.

What was measured:
[1] = Cell Viability - Hek293 (AID 427;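 active = compounds whose dose-response curve shows a full or clear partial loss of cell viability, called from curve shape rather than a numeric limit; inconclusive = weak partial curves or an effect only at the top dose; inactive = no dose-dependent loss of viability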;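 also: potency is read from the fitted curve at half-maximal effect; cells exposed to compound for 40 hours at 37 °C before reading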); settings: qHTS
In short: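 Luminescent ATP read-out (CellTiter-Glo, 20 min RT) after 40 hr compound exposure at 37 °C in complete medium. Signal normalized to DMSO (basal) and 100 uM tamoxifen (100% inhibition); concentration-response fitted with the standard Hill equation to give AC50.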

[2] = Cell Viability - NIH 3T3 (AID 541); settings: NIH 3T3 cell viability, qHTS; activity change, negative = cytotoxicity: at 92.2 µM (top of the series);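 also: plate controls were DMSO alone for no effect and tamoxifen positive control for full effect; nearly all actives have a fitted effect of over 25% in size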
In short: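 Mouse NIH 3T3 fibroblasts, 1000 cells/well, rested 5 hr at 37 °C, then exposed to compound for 40 hr at 37 °C in complete medium. Viability read as intracellular ATP by CellTiter-Glo luminescence; AC50 from Hill-equation fits of concentration-response data.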

[3] = Cell Viability - LYMP2-021 (AID 974); settings: LYMP2-021 lymphoblastoid cells viability; series mostly up to 92.2 µM;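 also: compound exposure lasts 24 hours at 37 °C; % is scaled to controls: 0 for no effect and ±100 for the full control effect; nearly all actives have a fitted effect of over 55% in size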
In short: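 Human lymphoblastoid LYMP2-021 cells, 2500/well in complete medium, treated 24 hours at 37 C. Intracellular ATP by CellTiter-Glo luminescence (30 min, RT); AC50 from Hill fits of concentration-response.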

[4] = molecular target: Androgen receptor (Homo sapiens) (UniProt P10275); assay: qHTS assay for small molecule antagonists of androgen receptor signaling (AID 588516; active = well fitted curve in the direction sought with a large enough effect in the signal ratio, with a control signal flat, not every such curve was filed as active; inconclusive = small, poorly fitted or top-dose-only effect, or effect the other way, or a change in a side signal; inactive = no such curve, though single readings can be large or run the other way; the % refers to the signal ratio; also: % is scaled to controls: 0 for no effect and ±100 for the full control effect); settings: AR-UAS-bla HEK293, beta-lactamase ratio, antagonist mode, 16 h; activity change, negative = inhibition: at 76.8 µM (top of the series)
UniProt P10275, sequence (P10275 whole entry, looked up): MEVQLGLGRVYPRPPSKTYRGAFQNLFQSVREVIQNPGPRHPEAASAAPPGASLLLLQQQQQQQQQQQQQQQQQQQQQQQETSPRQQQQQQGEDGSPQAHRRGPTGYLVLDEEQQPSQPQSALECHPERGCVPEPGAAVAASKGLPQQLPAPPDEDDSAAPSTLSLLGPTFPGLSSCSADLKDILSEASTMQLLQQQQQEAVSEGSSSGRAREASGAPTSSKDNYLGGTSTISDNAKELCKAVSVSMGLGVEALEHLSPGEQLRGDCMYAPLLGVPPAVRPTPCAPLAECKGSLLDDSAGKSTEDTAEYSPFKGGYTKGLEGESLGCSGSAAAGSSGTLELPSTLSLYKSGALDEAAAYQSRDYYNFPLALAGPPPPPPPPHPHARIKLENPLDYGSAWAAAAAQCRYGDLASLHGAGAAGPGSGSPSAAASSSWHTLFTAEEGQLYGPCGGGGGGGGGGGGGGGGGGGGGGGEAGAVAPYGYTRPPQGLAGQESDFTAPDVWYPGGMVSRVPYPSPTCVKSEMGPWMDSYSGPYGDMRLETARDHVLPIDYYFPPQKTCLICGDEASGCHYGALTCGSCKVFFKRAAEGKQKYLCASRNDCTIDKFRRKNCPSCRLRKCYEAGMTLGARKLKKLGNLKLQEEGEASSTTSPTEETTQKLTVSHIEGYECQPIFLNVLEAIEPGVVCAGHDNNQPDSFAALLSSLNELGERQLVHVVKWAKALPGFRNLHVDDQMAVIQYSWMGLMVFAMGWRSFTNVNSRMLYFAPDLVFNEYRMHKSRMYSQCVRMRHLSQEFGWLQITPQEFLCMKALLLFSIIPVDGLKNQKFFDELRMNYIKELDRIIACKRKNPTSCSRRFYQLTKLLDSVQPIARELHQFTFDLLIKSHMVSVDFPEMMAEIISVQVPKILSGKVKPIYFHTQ
In short: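 Antagonist mode: inhibition of R1881-stimulated (10 nM final) bla reporter in GeneBLAzer AR HEK 293 cells, 16 h at 37C, compounds titrated. IC50 and efficacy from Hill-equation fits of 405/460–530 nm FRET ratios.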

[5] = molecular target: Peroxisome proliferator-activated receptor gamma (Homo sapiens) (UniProt P37231); assay: qHTS assay for small molecule antagonists of peroxisome proliferator-activated receptor gamma signaling (AID 588537; active = well fitted inhibition curve with a large enough effect in the signal ratio, with a control signal flat, not every such curve was filed as active; inconclusive = small, poorly fitted or top-dose-only effect, or effect the other way, or a change in a side signal; the % refers to the signal ratio;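 also: reporter cells co-stimulated with 50 nM rosiglitazone agonist during compound treatment; % of control where 0% means no effect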); settings: HEK293 PPARg-UAS-bla, beta-lactamase ratio, antagonist mode; activity, negative = inhibition: at 76.8 µM (top of the series)
In short: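 PPARγ-UAS-bla HEK293 cells (3000/well) in 1% charcoal/dextran-stripped FBS are treated with compound, then stimulated with 50 nM rosiglitazone for 16 h at 37 °C. Read-out is CCF4 β-lactamase fluorescence after 2 h at RT. IC50 comes from Hill fits normalised to rosiglitazone and DMSO.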

[6] = molecular target: Thyroid hormone receptor beta (Homo sapiens) (UniProt P10828); assay: qHTS assay for small molecule agonists of thyroid hormone receptor beta signaling (AID 588545; calls by dose curve;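 also: 0% = DMSO only and 100% = 10 nM T3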); settings: TR-UAS-bla GripTite HEK 293, beta-lactamase ratio, agonist mode, 18 h; activation: at 76.7 µM, percent of T3 response, DMSO as zero
UniProt P10828, sequence (P10828 whole entry, looked up): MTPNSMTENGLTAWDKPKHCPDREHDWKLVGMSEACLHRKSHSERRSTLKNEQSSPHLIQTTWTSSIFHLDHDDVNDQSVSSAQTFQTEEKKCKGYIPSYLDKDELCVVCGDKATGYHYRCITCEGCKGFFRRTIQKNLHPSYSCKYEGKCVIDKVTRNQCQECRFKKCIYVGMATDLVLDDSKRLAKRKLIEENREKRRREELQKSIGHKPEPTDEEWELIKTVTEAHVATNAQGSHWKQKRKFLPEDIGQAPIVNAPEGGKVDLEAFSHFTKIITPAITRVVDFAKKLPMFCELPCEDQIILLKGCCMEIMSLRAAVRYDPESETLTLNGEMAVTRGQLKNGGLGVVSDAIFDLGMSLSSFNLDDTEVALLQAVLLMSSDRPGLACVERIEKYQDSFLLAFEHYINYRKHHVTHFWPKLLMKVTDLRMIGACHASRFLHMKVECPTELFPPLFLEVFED
In short: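 Efficacy and EC50 values derive from Hill fits of qHTS titration data, normalized to 10 nM T3 and DMSO-only wells. HEK 293 reporter cells were stimulated for 18 hrs at 37 C, with beta-lactamase activity measured by CCF4 fluorescence.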

[7] = qHTS assay to identify small molecules that stimulate interleukin-8 (IL-8) secretion (AID 651758; active = well fitted activation curve with a large enough effect in the signal ratio; inconclusive = small, poorly fitted or top-dose-only effect, or effect the other way, or a change in a side signal; the % refers to the signal ratio; also: potency is read from the fitted curve at half-maximal effect; as to activation: 0% is about no effect); settings: HTRF ratio (665/615); activation: at 92.2 µM (top of the series)
In short: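 THP-1 cells (2000/well) exposed to compound 16 h at 37 C; secreted IL-8 then detected by HTRF with cryptate- and XL665-labelled anti-IL-8 antibody pair after 1-3 h at room temperature.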

[8] = Cell Viability - Jurkat (AID 426;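 active = dose-dependent loss of cell ATP signal giving a full or clear fitted curve, ranked by lower potency value; inconclusive = weak partial curve or response only at the top dose; inactive = no loss of viability signal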; also: potency is read from the fitted curve at half-maximal effect); settings: qHTS
In short: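 Jurkat (Clone E6-1) cells, 5000/well in complete medium, exposed to compounds for 40 hr at 37C; intracellular ATP measured by CellTiter-Glo luminescence after 20 min at room temperature. AC50 from Hill fits.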

[9] = molecular target: Bile acid receptor (Homo sapiens) (UniProt Q96RI1); assay: qHTS assay for small molecule agonists of farnesoid X receptor signaling (AID 588527; calls by dose curve;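 also: 0% = vehicle basal and 100% = reference agonist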); settings: HEK293T FXR-UAS-bla, beta-lactamase ratio, 16 h; activation: hits give high values
UniProt Q96RI1, sequence (Q96RI1 whole entry, looked up): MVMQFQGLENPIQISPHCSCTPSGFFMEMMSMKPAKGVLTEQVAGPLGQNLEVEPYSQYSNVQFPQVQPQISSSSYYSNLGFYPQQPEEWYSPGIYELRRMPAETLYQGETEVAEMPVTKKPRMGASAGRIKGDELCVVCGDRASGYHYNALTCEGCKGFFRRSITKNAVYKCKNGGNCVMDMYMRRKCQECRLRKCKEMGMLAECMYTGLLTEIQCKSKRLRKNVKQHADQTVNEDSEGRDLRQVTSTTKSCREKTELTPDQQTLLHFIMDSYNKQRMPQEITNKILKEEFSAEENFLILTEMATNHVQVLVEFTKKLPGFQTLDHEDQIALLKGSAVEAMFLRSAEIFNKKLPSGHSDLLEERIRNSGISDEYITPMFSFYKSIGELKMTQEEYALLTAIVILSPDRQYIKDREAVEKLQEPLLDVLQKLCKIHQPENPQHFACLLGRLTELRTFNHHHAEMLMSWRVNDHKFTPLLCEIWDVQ
In short: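 FXR-UAS-bla HEK293T, 10% dialyzed FBS; cpds up to 92 uM titration, 16 h 37 C; CCF4 dye 2 h RT; fluorescence. Normalized to chenodeoxycholic acid 100 uM (100%) and DMSO (0%); Hill fit gives EC50, efficacy.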

[10] = molecular target: Peroxisome proliferator-activated receptor delta (Homo sapiens) (UniProt Q03181); assay: qHTS assay for small molecule antagonists of peroxisome proliferator-activated receptor delta signaling (AID 588535; active = well fitted inhibition curve with a large enough effect in the signal ratio, with a control signal flat, not every such curve was filed as active; inconclusive = small, poorly fitted or top-dose-only effect, or effect the other way, or a change in a side signal; inactive = no such curve, though single readings can be large or run the other way; the % refers to the signal ratio); settings: HEK293T PPARd-UAS-bla, beta-lactamase FRET ratio, 18 h; activity change, negative = inhibition: at 76.7 µM (top of the series)
UniProt Q03181, sequence (Q03181 whole entry, looked up): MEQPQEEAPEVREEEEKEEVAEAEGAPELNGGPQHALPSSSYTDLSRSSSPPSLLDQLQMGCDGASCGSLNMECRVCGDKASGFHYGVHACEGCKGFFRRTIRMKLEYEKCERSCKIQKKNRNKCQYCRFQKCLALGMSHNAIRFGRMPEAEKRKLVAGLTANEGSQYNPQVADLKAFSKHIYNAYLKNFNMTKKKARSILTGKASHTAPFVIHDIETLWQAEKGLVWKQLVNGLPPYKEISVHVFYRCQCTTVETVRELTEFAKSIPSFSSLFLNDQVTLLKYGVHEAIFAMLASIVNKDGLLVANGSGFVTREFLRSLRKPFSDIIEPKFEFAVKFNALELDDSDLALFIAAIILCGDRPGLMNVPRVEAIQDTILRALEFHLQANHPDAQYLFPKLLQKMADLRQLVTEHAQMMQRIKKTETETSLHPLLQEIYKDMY
In short: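 Antagonist-mode beta-lactamase reporter (GeneBLAzer PPAR-delta-UAS-bla) in HEK293T cells, 2% charcoal/dextran FBS, 4000 cells/well. Compound titrations, 18 h at 37 C; CCF4 ratio read, IC50 and efficacy from Hill fits.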

[11] = molecular target: Tumor necrosis factor (Homo sapiens) (UniProt P01375); assay: qHTS assay to identify small molecules that stimulate Tumor Necrosis Factor-alpha (TNF-alpha) secretion (AID 651757; active = well fitted curve in the direction sought with a large enough effect in the signal ratio; inconclusive = small, poorly fitted or top-dose-only effect, or a change in a side signal; inactive = no such curve, though single readings can be large or run the other way; the % refers to the signal ratio; also: 0% is about no effect); settings: Human cells, HTRF 665/615 ratio; activation (TNF-alpha secretion): at 92.2 µM (top of the series)
UniProt P01375, sequence (P01375 whole entry, looked up): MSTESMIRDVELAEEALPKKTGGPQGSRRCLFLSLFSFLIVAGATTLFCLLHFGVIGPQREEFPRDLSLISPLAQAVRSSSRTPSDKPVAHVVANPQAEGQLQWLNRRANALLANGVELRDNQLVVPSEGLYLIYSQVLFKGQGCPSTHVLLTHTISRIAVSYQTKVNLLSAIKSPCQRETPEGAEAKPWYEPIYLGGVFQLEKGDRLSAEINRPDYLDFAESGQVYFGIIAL
In short: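 THP-1 cells (3000/well) exposed to compounds 17 hrs at 37 C. Secreted TNF-alpha detected by HTRF with cryptate- and XL665-labeled anti-TNF-alpha antibodies after 3 hr at room temperature.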

[12] = qHTS assay for small molecule antagonists of the retinoid-related orphan receptor gamma (ROR-gamma) signaling pathway - cell viability counter screen (AID 720652; active = well fitted curve in the direction sought with a large enough effect in the repeat runs; inconclusive = weak or mixed curves; inactive = no such curve, though single readings can be large; an effect the other way counts as inactive or inconclusive;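 also: potency is read from the fitted curve at half-maximal effect; compound exposure lasted 16 hr before ATP read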); settings: RORgamma reporter cell line viability counter screen; series mostly up to 92.2 µM
In short: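 CHO cells carrying TET-inducible ROR and RORE-luciferase reporter, plated 5 hr, then dosed with compound plus doxycycline. After 16 hr at 37 C, viability read as intracellular ATP by CellTiter-Glo luminescence.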

[13] = Cellular Toxicity (caspase-3) HepG2 (AID 654); settings: HepG2 caspase-3 activation, luminescence; series mostly up to 92.2 µM;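 also: cells exposed to compound for 16 hours before reading; 0% = DMSO alone and 100% = caspase signal from 100 µM tamoxifen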
In short: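 HepG2 cells (1500/well) were treated 16 h at 37 °C in complete medium, then caspase 3/7 activity was read by Caspase-Glo luminescence. Data were normalized to DMSO and 100 uM tamoxifen; AC50 came from Hill-equation fits of qHTS concentration-response.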

[14] = molecular target: Glucocorticoid receptor (Homo sapiens) (UniProt P04150); assay: qHTS assay for small molecule antagonists of glucocorticoid receptor signaling (AID 588533; active = well fitted inhibition curve with a large enough effect in the signal ratio, with a control signal flat, not every such curve was filed as active; inconclusive = small, poorly fitted or top-dose-only effect, or effect the other way, or a change in a side signal; the % refers to the signal ratio;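 also: cells stimulated with 2 nM dexamethasone as agonist; % is scaled to controls: 0 for no effect and ±100 for the full control effect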); settings: HeLa MMTV-bla, GRE beta-lactamase ratio, antagonist mode, 18 h; activity change, negative = inhibition: at 76.8 µM (top of the series)
UniProt P04150, sequence (P04150 whole entry, looked up): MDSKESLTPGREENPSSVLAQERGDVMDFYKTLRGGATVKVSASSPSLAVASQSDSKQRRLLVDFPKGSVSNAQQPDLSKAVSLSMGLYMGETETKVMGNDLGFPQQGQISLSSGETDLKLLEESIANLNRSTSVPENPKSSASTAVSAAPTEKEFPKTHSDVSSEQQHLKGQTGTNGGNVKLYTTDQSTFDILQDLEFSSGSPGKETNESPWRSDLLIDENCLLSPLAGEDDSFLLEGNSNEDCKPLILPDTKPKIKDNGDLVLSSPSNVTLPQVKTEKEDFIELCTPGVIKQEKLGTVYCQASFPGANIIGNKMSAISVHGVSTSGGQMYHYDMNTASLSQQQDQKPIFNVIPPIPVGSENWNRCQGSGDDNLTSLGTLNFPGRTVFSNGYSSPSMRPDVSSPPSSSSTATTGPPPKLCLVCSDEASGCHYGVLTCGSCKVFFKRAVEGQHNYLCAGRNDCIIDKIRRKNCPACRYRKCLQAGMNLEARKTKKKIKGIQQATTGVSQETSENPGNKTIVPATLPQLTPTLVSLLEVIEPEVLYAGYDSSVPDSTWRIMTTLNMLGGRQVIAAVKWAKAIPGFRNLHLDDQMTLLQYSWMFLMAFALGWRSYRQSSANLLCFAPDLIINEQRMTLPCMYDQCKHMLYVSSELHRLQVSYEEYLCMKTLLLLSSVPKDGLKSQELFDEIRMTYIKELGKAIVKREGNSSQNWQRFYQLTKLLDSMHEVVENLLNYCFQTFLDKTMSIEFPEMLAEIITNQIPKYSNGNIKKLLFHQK

[15] = molecular target: Retinoic acid receptor RXR-alpha (Homo sapiens) (UniProt P19793); assay: qHTS assay for small molecule antagonists of retinoid X receptor alpha signaling (AID 588546; active = well fitted inhibition curve with a large enough effect in the signal ratio, with a control signal flat, not every such curve was filed as active; inconclusive = small, poorly fitted or top-dose-only effect, or effect the other way, or a change in a side signal; inactive = no such curve, though single readings can be large or run the other way; the % refers to the signal ratio;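 also: cells stimulated with 9-cis-retinoic acid as agonist; % is scaled to controls: 0 for no effect and ±100 for the full control effect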); settings: HEK293T RXRa-UAS-bla, beta-lactamase ratio, antagonist mode
UniProt P19793, sequence (P19793 whole entry, looked up): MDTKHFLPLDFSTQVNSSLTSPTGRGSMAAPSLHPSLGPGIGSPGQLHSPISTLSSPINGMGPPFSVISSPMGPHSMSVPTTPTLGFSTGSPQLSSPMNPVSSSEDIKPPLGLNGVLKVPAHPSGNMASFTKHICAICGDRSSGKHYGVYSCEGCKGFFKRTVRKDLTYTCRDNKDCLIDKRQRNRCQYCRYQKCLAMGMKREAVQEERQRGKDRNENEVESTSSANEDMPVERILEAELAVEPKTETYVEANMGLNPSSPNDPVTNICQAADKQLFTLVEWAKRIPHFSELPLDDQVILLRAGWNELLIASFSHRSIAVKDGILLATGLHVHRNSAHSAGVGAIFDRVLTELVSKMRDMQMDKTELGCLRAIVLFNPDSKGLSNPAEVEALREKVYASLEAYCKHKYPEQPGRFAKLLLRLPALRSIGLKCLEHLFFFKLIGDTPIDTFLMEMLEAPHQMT
In short: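 Beta-lactamase reporter inhibition, read as CCF4 fluorescence ratio (ex 405, em 460/530 nm) after 2 h at RT. HEK293T UAS-bla cells, 2500/well, were stimulated with 9-cis-RA at 500 or 100 nM final alongside test compound for 18 h at 37 C.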

[16] = qHTS assay for small molecule agonists of the antioxidant response element (ARE) signaling pathway (AID 651741; active = well fitted activation curve with a large enough effect in the signal ratio; inconclusive = small, poorly fitted or top-dose-only effect, or effect the other way, or a change in a side signal; the % refers to the signal ratio; also: potency is read from the fitted curve at half-maximal effect); settings: HepG2 ARE-bla reporter, beta-lactamase FRET ratio, 16 h; activation: at 96 µM (top of the series) unless noted
In short: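 CellSensor ARE-bla HepG2 cells (2,000/well) carrying ARE-driven beta-lactamase, exposed 16 h at 37 C. LiveBLAzer B/G FRET substrate added for 2 h at room temperature; fluorescence intensity read.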

[17] = qHTS assay for cell viability of HEK293 cells (AID 743288); settings: ATP luminescence (CellTiter-Glo), 18 h; max response: hits give low values; also: % is scaled to controls: 0 for no effect and ±100 for the full control effect; nearly all actives have a fitted effect of over 50% in size
In short: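 HEK293 parental, 2,000 cells/well; ≥5 h pre-incubation 37 C; pintool compound addition; 18 h, 37 C; CellTiter-Glo 30 min RT; luminescence read.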

[18] = molecular target: Glucocorticoid receptor (Homo sapiens) (UniProt P04150); assay: qHTS assay for small molecule agonists of glucocorticoid receptor signaling (AID 588532; active = well fitted curve in the direction sought with a large enough effect in the signal ratio, with a control signal flat; inconclusive = small, poorly fitted or top-dose-only effect, or a change in a side signal; inactive = no such curve, though single readings can be large or run the other way; the % refers to the signal ratio;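 also: 100% = dexamethasone at 0.1 µM and 0% = DMSO only wells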); settings: HeLa MMTV-bla, beta-lactamase ratio, agonist, 18 h; activation: hits give high values, percent of dexamethasone control, DMSO zero
In short: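 HeLa GRE-bla reporter cells; 18 h compound exposure at 37 C; 2 h CCF4 loading at room temperature; fluorescence at 460 and 530 nm; EC50 by Hill equation.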

[19] = molecular target: Thyroid hormone receptor beta (Homo sapiens) (UniProt P10828); assay: qHTS assay for small molecule antagonists of thyroid hormone receptor beta signaling (AID 588547; active = well fitted inhibition curve with a large enough effect in the signal ratio, with a control signal flat, not every such curve was filed as active; inconclusive = small, poorly fitted or top-dose-only effect, or effect the other way, or a change in a side signal; the % refers to the signal ratio;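 also: cells stimulated with 0.4 nM T3 agonist during compound exposure; % is scaled to controls: 0 for no effect and ±100 for the full control effect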); settings: TR-UAS-bla HEK293, beta-lactamase ratio, antagonist mode, 18 h
In short: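 TR-UAS-bla GripTite HEK293 cells in 2% charcoal/dextran FBS medium; compounds 0.59 nM to 92 uM with T3 at 0.4nM final, 18 h at 37 C. Beta-lactamase read by CCF4 fluorescence (460/530 nm); Hill fits gave IC50 and efficacy.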
Tags tell the direction and shape of the fitted curve.

Nc1cccc(S(=O)(=O)O)c1
inconclusive: activity change, negative = cytotoxicity [2] -41.4% | activity change, negative = inhibition [4] -39% | activity, negative = inhibition [5] 2.43% | Potency [7] 75 µM [activator, single point]
inactive: Potency [1] > 92 µM | Potency [3] | activation [6] -20%

C=CC(=O)CC
inactive: activation [9] 3.81% | Potency [11]
inconclusive: Potency [8] 107 µM [single point] | activity change, negative = inhibition [10] -5.24% | activity, negative = inhibition [5] -19% | activation [7] -1.91% | Potency [12] 66.8 µM [rising, partial curve, poor fit]

COc1cccc(N)c1
inactive: Potency [1] > 92 µM | Potency [13] | Potency [14] | max response [17] -0.119%
inconclusive: max response [15] -27% | Potency [16] 26.6 µM [activator, partial curve] | activation [7] 19%

CCCCC=O
inconclusive: Potency [16] 75 µM [activator, partial curve, poor fit]
inactive: Potency [1] > 92 µM | activation [18] -0.364% | activation [6] -3.59% | activity change % (negative = inhibition) [19] -3.59% | Potency [7]
